Over roughly 33,000 sequences, “E-score (-0.5 to 0.5)” has its median near -0.011; the highest 2% begin near 0.28. The list shows a part of the results.
target: T1, Gcr1 (UniProt P07261); assay: PBM E-score (8-mer binding enrichment) (E-score (-0.5 to 0.5)); higher = stronger / more preferred TF binding; most listed sequences are background and not binding sites; details: protein concentration: 100 nM; construct: GST-full length
T1 sequence: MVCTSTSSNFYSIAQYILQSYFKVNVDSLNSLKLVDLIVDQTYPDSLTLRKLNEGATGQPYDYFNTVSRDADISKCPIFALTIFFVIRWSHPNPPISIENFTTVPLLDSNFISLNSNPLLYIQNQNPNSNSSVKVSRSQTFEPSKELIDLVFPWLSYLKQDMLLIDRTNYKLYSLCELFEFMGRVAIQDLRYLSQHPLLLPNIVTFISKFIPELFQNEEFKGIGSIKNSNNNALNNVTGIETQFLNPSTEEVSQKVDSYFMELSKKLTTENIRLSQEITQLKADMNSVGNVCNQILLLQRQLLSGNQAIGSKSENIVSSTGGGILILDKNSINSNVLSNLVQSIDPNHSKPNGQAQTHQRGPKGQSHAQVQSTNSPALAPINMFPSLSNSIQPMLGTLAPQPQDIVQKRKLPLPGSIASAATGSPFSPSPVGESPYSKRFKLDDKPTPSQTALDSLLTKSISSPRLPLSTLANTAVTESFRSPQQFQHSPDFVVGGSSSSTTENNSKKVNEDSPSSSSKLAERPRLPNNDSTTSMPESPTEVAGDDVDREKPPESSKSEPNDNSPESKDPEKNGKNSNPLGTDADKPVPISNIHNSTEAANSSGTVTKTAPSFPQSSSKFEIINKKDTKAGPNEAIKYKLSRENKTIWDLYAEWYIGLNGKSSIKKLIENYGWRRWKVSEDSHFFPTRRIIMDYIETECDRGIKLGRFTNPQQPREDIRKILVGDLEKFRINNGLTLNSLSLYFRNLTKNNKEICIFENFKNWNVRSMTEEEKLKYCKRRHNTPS
Summary of the method: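 The E-score, a modified Wilcoxon-Mann-Whitney statistic, was computed by the Universal PBM Analysis Suite for every ungapped eight-base word pooled with its reverse complement. Scans behind it were normalised with masliner after bound GST-tagged yeast transcription factors were detected with fluorescent anti-GST. The proteins, at about 100-200 nM, had been applied to universal all-10-mer Agilent arrays made double-stranded by primer extension.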

Sequence	PBM E-score
CGTAGTGA	-0.043
AGATAAAT	-0.077
GACACCAC	0.169
GTTTCAAA	0.0493
AGGAGGGA	-0.139
AGGTCGCA	-0.0983
CAGCGATC	-0.151
TGATAACA	-0.147
GCAGCTCA	0.108
GCAATCTA	-0.11
ACTGCGTG	0.153
TAAAGAGA	0.0201
CAGGCGGA	0.0323
GTCACTCA	0.0683
ATTTGCAA	0.155
AGTTCGGA	0.0698
TGTCTTAA	-0.0143
ATCACTAC	0.0639
AACACCGC	0.0497
AAAATCAA	0.0187
CCACCTGA	0.088
ACGGCCTG	-0.127
GGAACGCC	0.152
ACGGGAAG	0.112
GTTCCTTA	0.0517

Sequence	PBM E-score
CAGAGTAA	-0.0736
CAGAGATA	0.0172
CTGGCTCC	0.26
AGAGCCTC	-0.147
CGGCTACC	0.0369
AATGCGTC	0.0832
GCTAGTAC	-0.0272
CCAGGAAG	0.166
CCTCATAG	-0.119
AACTGTAT	-0.0922
ACTAGCCC	0.0558
AGAGGCAG	0.0897
AGCACGTG	-0.196
AGGGAGTG	-0.121
AATAGTGA	0.0209
TCATCGCA	-0.0968
AGAATGGC	-0.0738
ACGGTAAG	-0.0708
GCGGGTAC	0.00167
ACAACACA	-0.0268
CAACCGAA	0.067
AACGAAAT	0.102
AAGGGACC	-0.286
TATCCTCA	-0.0338
AGGCAACT	0.0157

Sequence	PBM E-score
AAGAAAGC	-0.148
AACTCCGT	0.0358
AATGGGGG	-0.0754
AGTTCGAT	-0.00863
ACAGCCAT	-0.277
GAGAATAA	-0.0609
CGCAGGTC	-0.104
CCCCGTGA	-0.0435
AAGAAATC	0.0702
AACGGGCG	-0.0222
AATACATA	0.176
GGTTACAA	0.0617
AACCTGCA	-0.0327
AAAGCACA	-0.0802
GGATAAAC	-0.102
AAACTAGC	0.0289
AGTGCCAA	0.0317
GGATGGCC	-0.306
CTGAGACC	0.00107
ACTGGCAC	0.0733
GATCTCAA	-0.152
AGCGAGTA	0.0974
ATACCTAA	0.14
ATACGCCG	0.24
TATAAATA	0.131

Sequence	PBM E-score
GGGTTTAC	-0.144
CATTAGAC	0.0983
AGAGCGAA	-0.308
GCTCATGA	-0.153
GAGGGGTA	0.00675
CGTTCTTA	0.13
CAATGCCA	0.031
ACATCGCC	-0.0573
AACCATTC	-0.0583
CAAATAAC	0.132
AATCAACT	-0.0954
TAGAAGAA	0.352
CGCCATAC	0.127
AGTTTTAT	0.112
CCGAAGTA	0.0569
AAAGGACG	0.025
AAAAATTG	0.116
CTGGAGAC	0.164
TGACTGCA	-0.205
GGGGCGAC	0.118
CGTACGCA	-0.176
TCCTGCAA	-0.0959
TGGCATAA	-0.0219
CGACATAG	0.00154
TGGCCTAA	-0.279

Sequence	PBM E-score
AACCGTCT	-0.0995
ATCATCCA	0.0347
CATGAGAC	-0.288
CTCTGAAG	-0.125
CAAGACCG	-0.196
ACTGCCTC	-0.0123
GGCGCATA	-0.0105
ATATAAAG	0.114
TGCATCAA	0.129
GTGAGCTA	-0.175
CCCACTAG	-0.0356
TATGTACA	-0.126
GTCAAAAC	-0.167
GATAGTAA	-0.197
AGGCCCGC	-0.211
AAAGCCAC	0.0178
AAAACGTC	0.0144
CACATCGC	-0.0721
AGGGGCCA	0.011
CGATGGCC	-0.152
CTCGACTA	-0.0388
AGTAATAG	0.188
TCAGATGA	0.0861
GTAGGTGA	-0.217
CGTAAGCC	-0.0549

Sequence	PBM E-score
AAGCGACG	-0.101
AACTCAAA	0.0151
ATCTGTAG	-0.238
TACACGGA	0.0181
GCCACAGC	-0.196
GCAGTACC	-0.0855
CAGGGCAC	0.12
ATGGGGAG	0.081
GGTTTCGA	-0.0289
AGATTGTA	-0.193
AAAAAGCC	-0.0972
TATCTAAA	0.0155
TGACGAAA	0.0592
CTGTACAA	0.0328
TACGGAGA	-0.0406
GATCGCGA	0.133
TAACGCGA	-0.0611
GCGCTCTA	0.0028
CCGGTAAG	-0.072
AAAACCTA	0.0603
CGCCGCCA	0.181
CCGTACCC	-0.133
ACCTCTAT	0.205
ACTGACTA	-0.234
AAGCCGAA	0.185

Sequence	PBM E-score
GTTTAATA	-0.0345
TCCGGACA	-0.105
TACCTATA	0.131
AATCCAAG	0.0564
AAGTAAAA	0.0303
AAGTGTCA	-0.148
GCACACAA	-0.212
GCCACTAA	0.366
ACTCGGCA	-0.0171
GCTCGTAA	0.058
AACGCTGC	0.0719
ATGATACC	-0.142
ACAAAAGC	-0.0567
GTGCTCCA	-0.136
CAAATGTG	0.0323
AGGGAGAT	-0.297
AAGTGAAC	-0.0708
CTGACAGA	-0.0772
CGGAGACC	0.0935
GTACCTTA	0.0846
CAATGCAA	-0.169
GCCTAACA	-0.0744
ATTGGAAA	0.0513
AGTAAAAT	0.136
TATCAATA	0.107

Sequence	PBM E-score
AACCACAC	0.0626
CGGGCTCA	-0.0916
AAGCATCC	0.404
TCACGGAA	-0.0669
AGCCGCCA	0.208
CTATTAAG	-0.0237
CGTCAGAG	-0.107
GCCGTAGC	-0.0796
AGGCGATA	-0.0956
GACGACAA	0.00369
AAACGCTA	-0.0548
GTGTTACA	-0.0977
CAATACAC	-0.1
ACCCGAGA	0.0779
CGGTGAGA	-0.101
AGACCCGG	-0.0493
ACTGTGCT	-0.231
CCTACAAA	0.127
GCACCACC	-0.0802
ATGTCCCG	-0.183
CACTGGCG	0.126
GGGCCTAC	-0.25
CCGGTTGC	0.317
AATGGCGA	-0.106
ACACCGTG	-0.197

Sequence	PBM E-score
ACATTAGA	-0.104
CCTAATAG	0.15
CGTTGCAG	-0.178
GGTGTGAA	-0.0292
CCTTTGCC	-0.218
AATTCGTA	0.221
GAGAGCGA	-0.249
CACACATG	-0.123
GTGCTTTA	0.0235
CAAGATGG	0.0397
CCACTGCA	0.0682
GGTTTTAA	0.0767
AACATGCA	-0.106
AGACCCTG	-0.105
TAATCGAA	0.0134
CCTAGCTC	-0.0989
CCAACCCG	-0.196
GGCTTGAA	-0.2
GCCTTCAC	-0.0793
AGGGGTTA	-0.0231
CATCTAAG	-0.126
AGACCTAC	-0.175
TCGATAAA	0.226
CACTTTGG	-0.0459
AGACGGCC	-0.104

Sequence	PBM E-score
GCGAAAAA	0.105
AAATGGGA	0.194
CAAATTGG	0.213
CGTGGATC	0.00349
GATGGCGC	0.0734
ACTACTAT	0.218
GTCACACA	-0.118
CTGTCAAA	-0.132
ATAGGCAT	0.157
AATCAACA	0.0866
CTTGAGCC	-0.0761
GAGCTCTA	-0.172
CGCCTGGA	0.141
CTGTCGCC	-0.127
GCGAGTCC	-0.0562
ATCGGGCC	-0.0384
GACTCGAA	0.081
TAATTCAA	0.015
ACGTAAGA	-0.11
AAGCAGAC	0.134
AGTGGAAA	0.0918
CCGTGCGA	-0.00782
CTGAAAGA	-0.0374
TCTAGACA	-0.0816
ACATCTAG	0.0353

Sequence	PBM E-score
CTTCATAC	0.0389
ATCAACAC	0.0425
GATTTGCA	0.0462
AACTCCTG	-0.165
AACCGATA	-0.116
TATCTCAA	0.136
CCATCCCG	-0.248
AAAAGATA	0.0439
CTTATCCA	0.0373
ACCATGGC	-0.045
GCCTTCGA	-0.126
GGCAATAC	-0.0435
CGAGACCG	-0.0969
ACGGCTCA	-0.123
ATACTAAC	-0.0352
CAGAAGCA	0.0126
ACGTGCTC	8e-05
TCAACAGA	0.155
CGCAGTGC	-0.211
ACGTATCG	-0.0854
AGCGAGAA	-0.0984
CTTATTAC	0.0948
ACCGTGCC	-0.175
CGGAATTC	0.242
CACGTAGG	-0.0372

Sequence	PBM E-score
ACGTACTG	-0.192
CCCGGGCG	0.209
ATGTATTC	0.0999
ACACCTGC	-0.178
TCCTGTAA	0.354
ACAATTCA	-0.115
GATCACCC	-0.0494
ACTGCTGG	-0.134
CGTGCACC	-0.103
ACCTACTG	0.00657
CTGCGAGA	-0.0273
CTACCCAC	-0.123
AAAGTTTG	0.139
GCTCAGTA	0.14
ACGAGTAA	-0.0078
ATACAGCG	-0.0978
CTTATAAC	-0.0336
CTCGGCCA	-0.271
GCCTTCCA	0.184
AATTGGCC	-0.0021
ATTTATAC	0.124
ACCTAGAA	0.0544
ACCTTATA	-0.00363
CCAAACGG	-0.00574
GACCCGAC	-0.241

Sequence	PBM E-score
TATCATGA	-0.0571
CCGGTTAA	0.141
CGTTACTC	-0.326
GGGGAGAA	-0.0346
CGCCCCCC	-0.0501
AGCCGGAC	-0.0174
CGCAGGTA	-0.0399
CCTTAAGA	-0.0562
GAACAGAA	-0.0321
AAGCGGGT	0.0929
ATTCCCTC	-0.1
CCAATGTA	0.0497
GCACGACC	-0.21
CAAGTGTC	-0.129
AACCAGAG	0.0777
GTAAAGTA	-0.0139
GACGGCAC	-0.0223
GCAGGATA	-0.0223
AGTTACAC	0.0961
AGTTGGAT	0.039
CGACATAC	-0.0999
ACCTCCTA	-0.111
CAGAATCG	0.0789
ATATAGAG	0.133
GATACGGC	0.074

Sequence	PBM E-score
TAATCTAA	-0.115
CCAGAAGC	0.357
AAATAACA	0.0955
GCACACGC	-0.0904
CTAATACA	0.0485
AAGACCCA	-0.0116
CCTTCCCA	0.122
AGTGGGAT	0.25
AAGCCTTC	-0.191
CTGGACTC	0.141
ACGTCAGA	-0.0561
CGGTGAAG	-0.0956
GTATCATA	-0.061
CAGATCAA	-0.068
CCATCAAA	0.00625
ATAGCCCC	-0.147
GCCAAGCA	-0.044
ATACGCTC	-0.104
AGTGCGGC	-0.0999
